In the supplement of paper PMC12217912:
This is one part of the list. Sequences were assembled here from the parent chain. Values near 0.05 are background.

B1: TEV protease; numbered along this chain (parent)
chain: MGESLFKGPRDYNPISSSICHLTNESDGHTTSLYGIGFGPFIITNKHLFRRNNGTLVVQSLHGVFKVKDTTTLQQHLVDGRDMIIIRMPKDFPPFPQKLKFREPQREERICLVTTNFQTKSMSSMVSDTSCTFPSGDGIFWKHWIQTKDGQCGSPLVSTRDGFIVGIHSASNFTNTNNYFTSVPKNFMELLTNQEAQQWVSGWRLNADSVLWGGHKVFMVKPEEPFQPVKEATQL

Variants of: B1
Experiment: raw area under fraction-flipped curve 0-4 h after induction (AUC4h, not background-subtracted), DNA-recorder readout of cleavage of the substrate (dimensionless); higher = more cleavage of the substrate by the protease variant
Settings: temperature: 34 °C; time window: 0-4 h after rhamnose induction
Procedure: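 In vivo DNA recorder in E. coli TOP10(DE3) ΔrhaA at 34 °C. Each TEVp single-site mutant (parent TEVp 0) is paired with a single-site variant of the 7-mer TEVs (canonical ENLYFQ|S). The substrate sits between flexible linkers in a Bxb1-sfGFP-TEVs-SsrA fusion, so cleavage stabilises Bxb1 and speeds flipping of a recombination array, read by NGS. The value is the raw area under the fraction-flipped curve over 0-4 h after rhamnose induction (AUC4h), with ≥20 reads per time point. It is not background-subtracted; inactive controls average about 0.047.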
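Note: Bxb1 expression induced with 0.2% (w/v) L-rhamnose at OD600 near 0.5, cultures sampled hourly, flipped fraction per protease–substrate barcode pair counted by paired-end Illumina sequencing.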

Row | Variant | area with substrate ENLAFQS | area with substrate ENLCFQS | area with substrate ENLDFQS | area with substrate ENLFFQS | area with substrate ENLHFQS | area with substrate ENLIFQS | area with substrate ENLKFQS | area with substrate ENLMFQS | area with substrate ENLNFQS | area with substrate ENLQFQS | area with substrate ENLRFQS | area with substrate ENLSFQS | area with substrate ENLTFQS | area with substrate ENLWFQS | area with substrate ENLEFQS | area with substrate ENLGFQS | area with substrate ENLLFQS | area with substrate ENLPFQS | area with substrate ENLVFQS
1 | MGESLFKGPRDYNPISSSICHLTNESDGHTTSLYGIGFGPFIITNKHLFRRYNGTLVVQSLHGVFKVKDTTTLQQHLVDGRDMIIIRMPKDFPPFPQKLKFREPQREERICLVTTNFQTKSMSSMVSDTSCTFPSGDGIFWKHWIQTKDGQCGSPLVSTRDGFIVGIHSASNFTNTNNYFTSVPKNFMELLTNQEAQQWVSGWRLNADSVLWGGHKVFMVKPEEPFQPVKEATQL [N52Y] | 0.0614 | 0.0533 | 0.0732 | 0.0497 | 0.0513 | 0.0462 | 0.0626 | 0.0673 | 0.0557 | 0.0719 | 0.0634 | 0.0399 | 0.0713 | 0.0467 | – | – | – | – | –
2 | MGESLFKGPRDYNPISSSICHLTNESDGHTTSLYGIGFGPNIITNKHLFRRNNGTLVVQSLHGVFKVKDTTTLQQHLVDGRDMIIIRMPKDFPPFPQKLKFREPQREERICLVTTNFQTKSMSSMVSDTSCTFPSGDGIFWKHWIQTKDGQCGSPLVSTRDGFIVGIHSASNFTNTNNYFTSVPKNFMELLTNQEAQQWVSGWRLNADSVLWGGHKVFMVKPEEPFQPVKEATQL [F41N] | 0.0679 | 0.0651 | 0.0641 | 0.081 | 0.078 | – | 0.0612 | 0.0842 | 0.0749 | 0.0425 | 0.0754 | 0.0641 | – | – | 0.0653 | 0.0828 | 0.0647 | 0.0784 | 0.0598
3 | MGESLFKGPRDYNPISSSICHLTNESDGHTTSLYGIGFGPFIITNKHLFRRNNGTLVVQSLHGVFKVKDTTTLQQHLVDGRDMIIIRMPKDFPPFPQKLKFREPKREERICLVTTNFQTKSMSSMVSDTSCTFPSGDGIFWKHWIQTKDGQCGSPLVSTRDGFIVGIHSASNFTNTNNYFTSVPKNFMELLTNQEAQQWVSGWRLNADSVLWGGHKVFMVKPEEPFQPVKEATQL [Q105K] | 0.0575 | 0.0797 | 0.0609 | 0.0877 | 0.123 | – | 0.07 | 0.0771 | 0.0631 | 0.0885 | 0.0714 | 0.0685 | 0.0591 | 0.0631 | 0.0508 | – | – | 0.0803 | 0.0808
4 | MGESLFKGPRDYNPISSSICHLTNESDGHTTSLYGIGFGPFIITNKHLFRRNNGTLVVQSLHGVFKVKDTTTLQQHLVDGRDMIIIRMPKDFPPFPQKLKFREPQREERICLVTTNFQTKSMSSMVSDTSCTFPSGDQIFWKHWIQTKDGQCGSPLVSTRDGFIVGIHSASNFTNTNNYFTSVPKNFMELLTNQEAQQWVSGWRLNADSVLWGGHKVFMVKPEEPFQPVKEATQL [G138Q] | 0.0536 | 0.0536 | 0.0409 | 0.0863 | – | – | – | – | 0.0432 | 0.0629 | – | – | – | – | – | – | 0.105 | 0.0632 | –
5 | MGESLFKGPRDYNPISSSICHLTNEVDGHTTSLYGIGFGPFIITNKHLFRRNNGTLVVQSLHGVFKVKDTTTLQQHLVDGRDMIIIRMPKDFPPFPQKLKFREPQREERICLVTTNFQTKSMSSMVSDTSCTFPSGDGIFWKHWIQTKDGQCGSPLVSTRDGFIVGIHSASNFTNTNNYFTSVPKNFMELLTNQEAQQWVSGWRLNADSVLWGGHKVFMVKPEEPFQPVKEATQL [S26V] | 0.0756 | – | 0.0705 | 0.0895 | – | 0.0703 | 0.0481 | 0.0882 | 0.0708 | – | 0.068 | – | – | 0.0707 | 0.0621 | 0.0577 | – | 0.0455 | 0.07
6 | MGESLFKGPRDYNPISSSQCHLTNESDGHTTSLYGIGFGPFIITNKHLFRRNNGTLVVQSLHGVFKVKDTTTLQQHLVDGRDMIIIRMPKDFPPFPQKLKFREPQREERICLVTTNFQTKSMSSMVSDTSCTFPSGDGIFWKHWIQTKDGQCGSPLVSTRDGFIVGIHSASNFTNTNNYFTSVPKNFMELLTNQEAQQWVSGWRLNADSVLWGGHKVFMVKPEEPFQPVKEATQL [I19Q] | 0.0528 | – | 0.0456 | 0.0815 | 0.0649 | 0.115 | 0.0648 | 0.0648 | – | 0.0759 | 0.0705 | 0.0674 | – | 0.0748 | – | – | – | 0.074 | –
7 | MGESLFKGPRDYNPISSSICHLTKESDGHTTSLYGIGFGPFIITNKHLFRRNNGTLVVQSLHGVFKVKDTTTLQQHLVDGRDMIIIRMPKDFPPFPQKLKFREPQREERICLVTTNFQTKSMSSMVSDTSCTFPSGDGIFWKHWIQTKDGQCGSPLVSTRDGFIVGIHSASNFTNTNNYFTSVPKNFMELLTNQEAQQWVSGWRLNADSVLWGGHKVFMVKPEEPFQPVKEATQL [N24K] | 0.0463 | 0.0601 | 0.0609 | 0.0656 | 0.066 | 0.0408 | 0.0726 | 0.0602 | 0.0584 | 0.0516 | 0.0595 | – | 0.0699 | 0.0651 | 0.0638 | 0.0622 | 0.0573 | 0.0557 | 0.0755
8 | MGESLFKGPRDYNPISSSICHLTNESDGHTTSLYGIGFGPFIITNKHLFRRNNGTLVVQSLHGVFKVKDTTTLQQHLGDGRDMIIIRMPKDFPPFPQKLKFREPQREERICLVTTNFQTKSMSSMVSDTSCTFPSGDGIFWKHWIQTKDGQCGSPLVSTRDGFIVGIHSASNFTNTNNYFTSVPKNFMELLTNQEAQQWVSGWRLNADSVLWGGHKVFMVKPEEPFQPVKEATQL [V78G] | 0.0649 | 0.0208 | 0.0689 | – | 0.0611 | 0.0818 | – | – | 0.0572 | 0.0632 | 0.0491 | 0.0662 | – | 0.0827 | 0.0813 | – | 0.051 | 0.0519 | 0.0534
9 | MGESLFKGPRDYNPISSSICHLTNESDGHTCSLYGIGFGPFIITNKHLFRRNNGTLVVQSLHGVFKVKDTTTLQQHLVDGRDMIIIRMPKDFPPFPQKLKFREPQREERICLVTTNFQTKSMSSMVSDTSCTFPSGDGIFWKHWIQTKDGQCGSPLVSTRDGFIVGIHSASNFTNTNNYFTSVPKNFMELLTNQEAQQWVSGWRLNADSVLWGGHKVFMVKPEEPFQPVKEATQL [T31C] | 0.0584 | 0.0806 | 0.0659 | 0.0856 | 0.0591 | 0.0836 | 0.083 | – | 0.053 | 0.0801 | 0.0786 | 0.0375 | – | – | 0.0619 | – | – | 0.0799 | 0.0868
